Source: publication PMC7835222
These are yes or no findings as the source states them, for the method shown. Binding seen in cells or lysates may run through a third protein. Some results given as binding are weak or reduced against the parent protein; the word gives no strength. For some assays here: Sequences can lack the tags named with a protein.

Protein sequences, listed by entry. Tags and fused reporters are not part of them. Lines headed by an entry give the natural chain unless they say otherwise; changes in a name come on top. Residues count along the entry.
UniProt O60678: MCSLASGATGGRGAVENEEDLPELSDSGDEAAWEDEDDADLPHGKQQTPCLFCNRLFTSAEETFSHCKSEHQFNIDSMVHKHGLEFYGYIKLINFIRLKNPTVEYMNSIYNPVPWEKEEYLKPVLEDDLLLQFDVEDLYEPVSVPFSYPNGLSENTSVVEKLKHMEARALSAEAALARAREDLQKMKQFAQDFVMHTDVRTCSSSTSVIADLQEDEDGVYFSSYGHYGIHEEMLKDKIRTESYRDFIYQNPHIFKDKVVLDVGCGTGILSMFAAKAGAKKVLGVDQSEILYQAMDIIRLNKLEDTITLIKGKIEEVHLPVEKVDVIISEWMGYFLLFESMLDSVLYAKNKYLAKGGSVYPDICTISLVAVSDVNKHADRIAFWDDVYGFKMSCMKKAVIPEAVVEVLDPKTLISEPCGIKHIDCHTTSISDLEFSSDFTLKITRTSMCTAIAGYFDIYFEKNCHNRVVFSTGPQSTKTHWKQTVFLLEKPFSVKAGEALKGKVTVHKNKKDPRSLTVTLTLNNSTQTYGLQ
UniProt O14744: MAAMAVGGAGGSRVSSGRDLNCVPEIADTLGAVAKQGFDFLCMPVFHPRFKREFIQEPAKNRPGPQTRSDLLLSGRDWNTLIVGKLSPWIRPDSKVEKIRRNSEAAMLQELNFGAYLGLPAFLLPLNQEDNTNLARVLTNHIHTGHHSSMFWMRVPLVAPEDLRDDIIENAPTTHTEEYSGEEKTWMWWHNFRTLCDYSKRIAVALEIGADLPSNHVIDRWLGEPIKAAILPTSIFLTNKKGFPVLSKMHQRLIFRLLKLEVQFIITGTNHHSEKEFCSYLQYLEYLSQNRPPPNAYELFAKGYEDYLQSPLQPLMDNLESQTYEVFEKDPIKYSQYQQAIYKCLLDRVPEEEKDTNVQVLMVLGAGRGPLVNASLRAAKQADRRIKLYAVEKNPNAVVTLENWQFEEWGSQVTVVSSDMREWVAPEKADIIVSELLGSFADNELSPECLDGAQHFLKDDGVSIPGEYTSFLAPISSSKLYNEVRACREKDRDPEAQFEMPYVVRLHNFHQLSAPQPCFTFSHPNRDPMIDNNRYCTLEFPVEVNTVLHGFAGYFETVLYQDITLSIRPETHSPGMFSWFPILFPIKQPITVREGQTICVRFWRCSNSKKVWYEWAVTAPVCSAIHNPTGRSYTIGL
UniProt Q96LA8: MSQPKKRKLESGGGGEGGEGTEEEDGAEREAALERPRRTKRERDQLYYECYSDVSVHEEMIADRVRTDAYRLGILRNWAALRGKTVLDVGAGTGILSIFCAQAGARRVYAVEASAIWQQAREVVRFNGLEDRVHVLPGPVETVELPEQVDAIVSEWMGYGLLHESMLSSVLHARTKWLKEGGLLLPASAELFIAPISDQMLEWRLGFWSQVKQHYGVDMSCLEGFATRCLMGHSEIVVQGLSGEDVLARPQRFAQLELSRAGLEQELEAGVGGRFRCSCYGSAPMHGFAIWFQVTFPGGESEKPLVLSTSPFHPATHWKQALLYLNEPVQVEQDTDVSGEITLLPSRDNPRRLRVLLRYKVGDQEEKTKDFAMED
UniProt P05091, residues 18-517: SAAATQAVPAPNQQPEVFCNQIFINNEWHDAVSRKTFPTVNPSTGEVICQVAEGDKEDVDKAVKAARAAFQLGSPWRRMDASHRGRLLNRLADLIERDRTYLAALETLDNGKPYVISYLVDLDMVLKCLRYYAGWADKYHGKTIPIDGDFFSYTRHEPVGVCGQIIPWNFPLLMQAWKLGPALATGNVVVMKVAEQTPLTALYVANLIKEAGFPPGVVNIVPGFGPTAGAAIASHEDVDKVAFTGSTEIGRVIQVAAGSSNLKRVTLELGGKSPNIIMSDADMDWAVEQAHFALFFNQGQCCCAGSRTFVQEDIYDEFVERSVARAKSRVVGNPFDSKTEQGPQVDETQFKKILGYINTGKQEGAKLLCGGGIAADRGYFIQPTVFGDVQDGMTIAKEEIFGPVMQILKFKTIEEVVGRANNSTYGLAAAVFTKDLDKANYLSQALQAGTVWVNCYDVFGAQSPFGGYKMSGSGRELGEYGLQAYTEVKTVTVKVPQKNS

Tests used:
[1] = target: T1, GST-tagged full-length ALDH1A1 (pGEX-AL-FL) (human) (UniProt P00352); assay: pull-down; 15 µg GST-tagged ALDH1A1 (full length or truncated) on Glutathione Sepharose, lysates of HEK293 cells overexpressing GFP-tagged PRMT proteins; 4 °C, 10 h; blot with GFP antibody; only the target purified
T1 sequence: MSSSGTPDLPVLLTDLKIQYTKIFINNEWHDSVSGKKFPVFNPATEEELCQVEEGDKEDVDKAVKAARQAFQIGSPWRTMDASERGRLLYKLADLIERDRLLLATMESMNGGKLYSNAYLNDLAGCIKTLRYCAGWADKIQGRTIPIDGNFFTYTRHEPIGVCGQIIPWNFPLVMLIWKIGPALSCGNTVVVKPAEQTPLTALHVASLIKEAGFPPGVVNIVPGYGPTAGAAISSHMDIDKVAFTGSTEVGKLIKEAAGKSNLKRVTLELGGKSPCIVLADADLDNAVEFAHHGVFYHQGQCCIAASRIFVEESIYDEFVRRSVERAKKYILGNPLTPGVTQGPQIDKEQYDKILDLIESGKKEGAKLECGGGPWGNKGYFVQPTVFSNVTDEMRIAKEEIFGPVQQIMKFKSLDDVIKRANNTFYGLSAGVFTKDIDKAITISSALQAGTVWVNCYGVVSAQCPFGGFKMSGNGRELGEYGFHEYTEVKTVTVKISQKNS

[2] = target: GST-tagged PRMT3 full-length protein (pGEX-PR-FL) (human) (UniProt O60678); assay: pull-down; 15 µg GST-tagged PRMT3 on Glutathione Sepharose, lysates of HEK293 cells overexpressing HA-tagged ALDH members; 4 °C, 10 h; blot with HA antibody; only the target purified
[3] = target: T2, GFP-tagged ALDH1A1 (pEGFP-AL-FL) (human) (UniProt P00352); assay: co-IP; HEK293 cells co-transfected; GFP-tagged protein precipitated with GFP Trap A beads, 4 °C, 10 h; 10 mM Tris pH 7.5, 150 mM NaCl, 0.5 mM EDTA, 0.1% NP-40; blot with Myc (forward) or HA (reverse) antibody
T2 sequence: T1 sequence

| binding [1] | Substance | also measured |
| --- | --- | --- |
| no binding | GFP-PRMT5 (pEGFP-PRMT5) (from UniProt O14744 1-637) (enzyme) | – |
| binds weakly | GFP-PRMT6 (pEGFP-PRMT6) (from UniProt Q96LA8 1-375) (enzyme) | – |
| binds | GFP-tagged PRMT3 full-length protein (pEGFP-PR-FL) (from UniProt O60678-1 1-531) (enzyme) | – |
| – | HA-ALDH2 (pCDNA4-HA-ALDH2) (from UniProt P05091 18-517) (enzyme) | binding [2]: no binding |
| – | HA-tagged PRMT3 (pCDNA4-HA-PR-FL) (from UniProt O60678-1 1-531) (enzyme) | binding [3]: binds |
